# The other results are listed elsewhere or left out.
# Columns and labels:
# Test in all cases: glycan array binding signal (z-score within array); higher = stronger binding
# Conditions in all cases: glycan notation: IUPAC condensed, linker removed
# [1] = biological target: GalNAc3S(b1-4)[Fuc(a1-3)]GlcNAc
# How it was run: (§1)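 Columns mapping to the same glycan were averaged after glycan names were converted to IUPAC-condensed notation. The data come from 3228 arrays in the Consortium for Functional Glycomics database, limited to those with an available protein sequence. Binding is reported as a within-array Z-score averaged across arrays of one protein sequence and across linkers.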
# [2] = biological target: GalNAc4S6S(b1-4)GlcNAc
# How it was run: as §1
# [3] = biological target: GalNAc6S(b1-4)GlcNAc
# How it was run: as §1
# [4] = biological target: Glc(a1-4)Glc
# How it was run: as §1
# [5] = biological target: Glc(a1-4)Glc(a1-4)Glc(a1-4)Glc
# How it was run: as §1
# [6] = biological target: Glc(a1-6)Glc(a1-6)Glc
# How it was run: as §1
# [7] = biological target: Glc(a1-6)Glc(a1-6)Glc(a1-6)Glc
# How it was run: as §1
# [8] = biological target: Glc(b1-4)Glc
# How it was run: as §1
# [9] = biological target: Glc(b1-6)Glc
# How it was run: as §1
# [10] = biological target: GlcA(b1-3)Gal
# How it was run: as §1
# [11] = biological target: GlcA(b1-3)GlcNAc
# How it was run: as §1
# [12] = biological target: GlcA(b1-6)Gal
# How it was run: as §1
# [13] = biological target: GlcA3S(b1-3)Gal(b1-4)GlcNAc(b1-2)Man
# How it was run: as §1
# [14] = biological target: GlcA3S(b1-3)Gal(b1-4)GlcNAc(b1-3)Gal(b1-4)Glc
# How it was run: as §1
# [15] = biological target: GlcNAc(a1-3)Gal(b1-4)GlcNAc
# How it was run: as §1
# [16] = biological target: GlcNAc(a1-4)Gal(b1-3)GlcNAc
# How it was run: as §1
# [17] = biological target: GlcNAc(a1-4)Gal(b1-4)GalNAc
# How it was run: as §1
# [18] = biological target: GlcNAc(a1-4)Gal(b1-4)GlcNAc
# How it was run: as §1
# [19] = biological target: GlcNAc(a1-4)Gal(b1-4)GlcNAc(b1-3)Gal(b1-4)Glc
# How it was run: as §1
# [20] = biological target: GlcNAc(a1-4)Gal(b1-4)GlcNAc(b1-3)Gal(b1-4)GlcNAc
# How it was run: as §1
# [21] = biological target: GlcNAc(a1-4)Gal(b1-4)GlcNAc(b1-3)Gal(b1-4)GlcNAc(b1-3)Gal(b1-4)GlcNAc
# How it was run: as §1
# [22] = biological target: GlcNAc(a1-4)Gal(b1-4)GlcNAc(b1-3)Gal(b1-4)[Fuc(a1-3)]GlcNAc(b1-3)Gal(b1-4)[Fuc(a1-3)]GlcNAc
# How it was run: as §1
# [23] = biological target: GlcNAc(a1-6)Gal(b1-4)GlcNAc
# How it was run: as §1
# [24] = biological target: GlcNAc(b1-2)Gal(b1-3)GalNAc
# How it was run: as §1
# [25] = biological target: GlcNAc(b1-2)Man(a1-3)[GlcNAc(b1-2)Man(a1-6)]Man(b1-4)GlcNAc(b1-4)GlcNAc
# How it was run: as §1
# [26] = biological target: GlcNAc(b1-2)Man(a1-3)[GlcNAc(b1-2)Man(a1-6)]Man(b1-4)GlcNAc(b1-4)[Fuc(a1-6)]GlcNAc
# How it was run: as §1
# [27] = biological target: GlcNAc(b1-2)Man(a1-3)[GlcNAc(b1-4)][GlcNAc(b1-2)Man(a1-6)]Man(b1-4)GlcNAc(b1-4)GlcNAc
# How it was run: as §1
# [28] = biological target: GlcNAc(b1-2)Man(a1-3)[GlcNAc(b1-4)][GlcNAc(b1-2)Man(a1-6)]Man(b1-4)GlcNAc(b1-4)[Fuc(a1-6)]GlcNAc
# How it was run: as §1
# [29] = biological target: GlcNAc(b1-2)[GlcNAc(b1-4)]Man(a1-3)[GlcNAc(b1-2)Man(a1-6)]Man(b1-4)GlcNAc(b1-4)GlcNAc
# How it was run: as §1
# [30] = biological target: GlcNAc(b1-2)[GlcNAc(b1-4)]Man(a1-3)[GlcNAc(b1-4)][GlcNAc(b1-2)Man(a1-6)]Man(b1-4)GlcNAc(b1-4)GlcNAc
# How it was run: as §1
# [31] = biological target: GlcNAc(b1-2)[GlcNAc(b1-4)]Man(a1-3)[GlcNAc(b1-4)][GlcNAc(b1-2)[GlcNAc(b1-6)]Man(a1-6)]Man(b1-4)GlcNAc(b1-4)GlcNAc
# How it was run: as §1
# [32] = biological target: GlcNAc(b1-2)[GlcNAc(b1-4)]Man(a1-3)[GlcNAc(b1-4)][GlcNAc(b1-2)[GlcNAc(b1-6)]Man(a1-6)]Man(b1-4)GlcNAc(b1-4)[Fuc(a1-6)]GlcNAc
# How it was run: as §1
# [33] = biological target: GlcNAc(b1-2)[GlcNAc(b1-6)]Man(a1-6)[GlcNAc(b1-2)Man(a1-3)]Man(b1-4)GlcNAc(b1-4)GlcNAc
# How it was run: as §1
# [34] = biological target: GlcNAc(b1-2)[GlcNAc(b1-6)]Man(a1-6)[GlcNAc(b1-2)Man(a1-3)]Man(b1-4)GlcNAc(b1-4)[Fuc(a1-6)]GlcNAc
# How it was run: as §1
# [35] = biological target: GlcNAc(b1-2)[GlcNAc(b1-6)]Man(a1-6)[GlcNAc(b1-4)][GlcNAc(b1-2)Man(a1-3)]Man(b1-4)GlcNAc(b1-4)GlcNAc
# How it was run: as §1
# [36] = biological target: GlcNAc(b1-3)Fuc
# How it was run: as §1
# [37] = biological target: GlcNAc(b1-3)Gal
# How it was run: as §1
# [38] = biological target: GlcNAc(b1-3)Gal(b1-3)GalNAc
# How it was run: as §1
binder,measurement,setting,value
GS7807E-bfa-538-23-538 (Bacteroides fragilis) (protein) TDSFESFNTNEAGFDNDSKKQDFNYYGIPLGIIQQGIYFNYDWGSGKNWPFQTMQNLGADLFSGYVHDFNPFNEGKNNSTYYMMDGWNGSTWDNTYGYIMPEVQKSETINEKDNIGFFGITKILKVELMHRLSDLYGPIVYTQFGSKTGSTPDTQQEAYKAFFNDLDTGIAKIREYQKANPDIESFAKFDILMPQGKRTFSEWIRFANSLRLRLAVRIAMADSKLAVAEAQKALTDEEGLLEGNDEVVAVSTSSGYTNPFGEINKAWGEVFMNANMESLLVGYEDPRMEKYFDKATGSDATSLIDYKGTYKGIRQGTGFSHKNYNGHSKSTITQQTDAVLMTPAEVWFLRAEAALRGWSSESVKDCYEKGVKASFAQWGAAGAEAYLESDRKPSDYVDAFKAANNVKAVNTLTPKWDDAAGNEDKLGRIITQKWLAMFPEGGEAWAEQRRTGYPRLFPVLVNQSEGTVDTNLGPRRLNFFVGIKTTNPEQYTQLVNALGGIDNCGTRLWWDTGRNF,glycan array binding signal (z-score),[1],3.75
same,glycan array binding signal (z-score),[2],-0.65
same,glycan array binding signal (z-score),[3],-0.443
same,glycan array binding signal (z-score),[4],-0.685
same,glycan array binding signal (z-score),[5],-0.541
same,glycan array binding signal (z-score),[6],-0.697
same,glycan array binding signal (z-score),[7],-0.632
same,glycan array binding signal (z-score),[8],-0.412
same,glycan array binding signal (z-score),[9],-0.646
same,glycan array binding signal (z-score),[10],-0.712
same,glycan array binding signal (z-score),[11],-0.585
same,glycan array binding signal (z-score),[12],-0.128
same,glycan array binding signal (z-score),[13],-0.684
same,glycan array binding signal (z-score),[14],0.65
same,glycan array binding signal (z-score),[15],-0.706
same,glycan array binding signal (z-score),[16],-0.658
same,glycan array binding signal (z-score),[17],-0.527
same,glycan array binding signal (z-score),[18],-0.444
same,glycan array binding signal (z-score),[19],-0.595
same,glycan array binding signal (z-score),[20],-0.642
same,glycan array binding signal (z-score),[21],-0.65
same,glycan array binding signal (z-score),[22],-0.514
same,glycan array binding signal (z-score),[23],1.61
same,glycan array binding signal (z-score),[24],-0.677
same,glycan array binding signal (z-score),[25],-0.653
same,glycan array binding signal (z-score),[26],-0.516
same,glycan array binding signal (z-score),[27],-0.639
same,glycan array binding signal (z-score),[28],-0.694
same,glycan array binding signal (z-score),[29],-0.599
same,glycan array binding signal (z-score),[30],-0.711
same,glycan array binding signal (z-score),[31],-0.646
same,glycan array binding signal (z-score),[32],-0.629
same,glycan array binding signal (z-score),[33],-0.591
same,glycan array binding signal (z-score),[34],-0.662
same,glycan array binding signal (z-score),[35],-0.699
same,glycan array binding signal (z-score),[36],-0.69
same,glycan array binding signal (z-score),[37],-0.675
same,glycan array binding signal (z-score),[38],-0.576
